Results on 91 compounds are retold here after PubChem BioAssay AID463173 (ICCB-Longwood Screening Facility, Harvard Medical School, 2010).

The structures appear in SMILES notation. In all, about 52,000 compounds went through this assay and about 1,700 (3.3%) were called active. Rule as the data show it: active = survival mostly below about 52% (no sharp cut-off); inactive = mostly above about 56%. The list shows a part of the results.

The test system of the experiment is Wild type. In words: S. aureus survival, RN4220 and DeltatarO strains – OD600, teichoic acid synthesis inhibitors, primary screen (AID 463173). As to conditions: S. aureus RN4220 wild type/DeltatarO growth, OD600, 18 h, active compounds read low, screened at 18.75 µg/mL (by protocol).
In the case of `O=C(CCn1cnc2ccccc2c1=O)NCc1ccccc1`, the survival was inactive: 120%.

Take `CC(=O)C1=C(c2ccc(Cl)c(Cl)c2)N(C(C)=O)n2c(C)nnc2S1`: the survival is inactive: 121%.

Regarding `CN1C(=O)Cc2cc(S(=O)(=O)CCC(=O)Nc3ccccc3)ccc21`, the survival is inactive: 70%.

Take `CCN(CC)CCCNC(=O)Cn1nc(N2CCN(c3ccccc3OC)CC2)ccc1=O`: the survival is inactive: 84%.

On to `Cc1cc(C)n(CCCO)c(=O)c1C#N`, for which the survival was inactive: 93%.

Turning to `COc1cc(OC)c(N(C)C(=O)c2nn(C)c3c2CSc2ccccc2-3)cc1Cl`, the survival was inactive: 70%.

In the case of `Cc1cccc(C)c1NC(=O)c1oc2c(c1C)-c1nn(Cc3ccccc3)cc1CC2`, the survival is inactive: 63%.

With `CCCSCCCNC(=O)CN1C(=O)COc2ccc(S(=O)(=O)N3CCC(C)CC3)cc21`, the survival is inactive: 82%.

Regarding `O=C(CN1CCOCC1)N1CCN(c2ccccc2)CC1`, the survival was inactive: 107%.

On to `CCc1ccc(S(=O)(=O)Nc2ccc(-c3ccc(N4CCCCCC4)nn3)cc2)cc1`, for which the survival was inactive: 78%.

Consider `O=C(NCC(c1ccccc1)c1ccccc1)c1nn(-c2ccccc2Cl)nc1CO`, for which the survival is inactive: 86%.

As to `CCOc1ccccc1NC(=O)c1sc(-n2nc(C)c(CCC(C)C)c2C)nc1C`, the survival is inactive: 94%.

On to `Cc1nc2c(C(=O)N(C)Cc3ccccc3)c[nH]n2c(=O)c1Cc1ccc(Cl)cc1`, for which the survival is inactive: 94%.

Consider `Cc1ccc(Cl)cc1N1CCN(C(=O)c2ccc3c(c2)N(Cc2ccccc2F)C(=O)c2ccccc2S3(=O)=O)CC1`, for which the survival was inactive: 90%.

Turning to `C=CCNc1nc(C(C)C)nc2c1nnn2Cc1ccccc1`, the survival was inactive: 101%.

Consider `COc1ccc(Cl)cc1NC(=O)CN(C)S(=O)(=O)c1ccc(Br)s1`, for which the survival is inactive: 95%.

As for `CCOc1ccc(C(C)N)cc1` (stereo unspecified), the survival was inactive: 102%.

Turning to `CCCCOc1ccc(S(=O)(=O)N2CCN(c3ccccc3OCC)CC2)cc1`, the survival was inactive: 112%.

Take `COCCCNC(=O)CCC(=O)N1Cc2ccccc2Oc2ncccc21`: the survival is inactive: 91%.

On to `Cc1cc2c(c3oc(=O)c4ccccc4c13)CN(Cc1ccc(F)cc1)CO2`, for which the survival was inactive: 77%.

`CCC1CCCCN1CCCNC(=O)CN1C(=O)CSc2ccc(S(=O)(=O)N3CCC(C)CC3)cc21` (stereo unspecified): the survival was inactive: 124%.

As to `Cc1cc(C)c2oc(-c3cccc(NC(=O)c4ccco4)c3)nc2c1`, the survival was inactive: 114%.

Take `O=C(Nc1cccc(Cl)c1)Nc1ccccc1OCc1cc(=O)n2ccccc2n1`: the survival was inactive: 67%.

Consider `Cc1ccc(-n2nc3c(N4CCCC(C(=O)NCCc5ccccc5)C4)nnc(C)c3c2C)cc1` (stereo unspecified), for which the survival is inactive: 74%.

As to `Cc1ccc(CNC(=O)Cn2ccn(-c3ccc(C)c(C)c3)c(=O)c2=O)cc1`, the survival was inactive: 86%.

In the case of `CN(C)c1ccc(CNC(=O)CN(C)S(=O)(=O)c2ccc3c(c2)c(=O)n(C)c(=O)n3C)cc1`, the survival is inactive: 91%.

For the compound `Cc1ccc(CNC(=O)CN(c2ccc(Cl)cc2Cl)S(=O)(=O)c2ccccc2)cc1`, the survival was inactive: 69%.

For `Cc1ccc(CCNC(=O)Cn2c(-c3cccs3)cc3cc(F)ccc32)cc1`, the survival was inactive: 86%.

In the case of `CCc1cccc2sc(N3CCN(C(=O)c4cc5ccccc5cc4OC)CC3)nc12`, the survival is inactive: 123%.

In the case of `COc1cccc(C(=O)Nc2c(C(=O)NC(C)(C)C)oc3ccccc23)c1`, the survival was inactive: 118%.

With `Cc1ccc(C(=O)CSc2nc(C)cc(SCC#N)n2)cc1`, the survival was inactive: 113%.

Take `CCc1cccc(NC(=O)Cn2c(=O)n(CCc3ccc(OC)c(OC)c3)c(=O)c3ccccc32)c1`: the survival is inactive: 124%.

`Cc1ccc(-c2nnn(CC(=O)N(CC(=O)NCC3CCCO3)C3CCN(Cc4ccccc4)CC3)n2)o1` (stereo unspecified): the survival was inactive: 113%.

As for `COc1ccc(CC(=O)NCc2ccc3c(c2)CCN3C(=O)c2ccc(C)cc2)cc1OC`, the survival was inactive: 71%.

In the case of `O=C(Cn1ncc2c(=O)oc3ccccc3c21)NCc1ccccc1Cl`, the survival is inactive: 92%.

As for `O=c1c2c3c(sc2nc(NCCO)n1-c1ccccc1)CCCC3`, the survival was inactive: 100%.

On to `CCOC(=O)c1c(C)[nH]c(C)c1S(=O)(=O)N1CCCC(C(=O)Nc2ccc(OC)c(Cl)c2)C1` (stereo unspecified), for which the survival is inactive: 100%.

Take `O=C(Cn1ncc2c3ccccc3n(Cc3ccccc3F)c2c1=O)NCCc1ccc(Cl)cc1`: the survival was inactive: 65%.

`COc1cccc(CNC(=O)CSc2c3c(nc4ccc(Cl)cc24)CCCC3)c1OC`: the survival is inactive: 76%.

`O=C(Cn1cnc(S(=O)(=O)N2CCCC2)c1)Nc1ccc(OC(F)(F)F)cc1`: the survival is inactive: 84%.

For the compound `CCc1ccc(NC(=O)c2cc3sc(Cl)cc3n2C)cc1`, the survival was inactive: 116%.

For the compound `CC1=C(C(=O)Nc2ccc(C)cc2C)C(c2ccc(Cl)cc2)n2nc(C(=O)OC(C)C)nc2N1` (stereo unspecified), the survival was inactive: 82%.

For the compound `COc1ccc(CN2COc3ccc4c(-c5ccccc5)cc(=O)oc4c3C2)cc1`, the survival is inactive: 117%.

As to `Cc1cccc(N2CCN(C(=O)C3CCN(S(=O)(=O)c4cccs4)CC3)CC2)c1C`, the survival was inactive: 99%.

As to `O=C1CCN(C(=O)c2ccccc2)C2CCCCC12` (stereo unspecified), the survival was inactive: 121%.

`COc1ccc(OC)c(NC(=O)Cn2cnc3c(oc4ccccc43)c2=O)c1`: the survival is inactive: 75%.

In the case of `Cc1ccccc1Nc1nnc(-c2ccc(C)c(S(=O)(=O)N3CCOCC3)c2)c2ccccc12`, the survival was inactive: 107%.

Regarding `Cc1ccsc1/C=N/NC(=O)CO`, the survival was inactive: 106%.

As for `CCOc1ccc(NC(=O)C2CCN(S(=O)(=O)c3cc(-c4noc(C)n4)ccc3C)CC2)cc1`, the survival is inactive: 134%.

As to `CN(Cc1ccccc1)C(=O)COc1ccc(S(=O)(=O)N2CCCC2)cc1`, the survival was inactive: 121%.

For the compound `CC(C)CC(=O)NCc1nc2cccnc2n1Cc1ccccc1`, the survival was inactive: 77%.

In the case of `COc1ccc(C(=O)N2CC(C)CC(C)C2)cc1` (stereo unspecified), the survival is inactive: 109%.

On to `O=C(O)CCC(=O)NC(c1ccccc1)c1ccccc1`, for which the survival was inactive: 108%.

Regarding `CSc1cccc(-c2nnc(NC(=O)c3ccc4c(c3)OCCO4)o2)c1`, the survival was inactive: 64%.

As to `O=S(=O)(Nc1cc(Sc2ncn[nH]2)c(O)c2ccccc12)c1cccs1`, the survival is inactive: 122%.

With `CCOC(=O)c1nc(Nc2ccc(C(=O)OCC(C)C)cc2)c2ccccc2n1`, the survival was inactive: 91%.

In the case of `O=C(CCc1cn(Cc2ccccc2F)c2ccccc12)NCc1ccc(Cl)cc1`, the survival was inactive: 81%.

With `O=C1CSC(c2ccccc2)N1Nc1nc(N2CCOCC2)nc(N2CCOCC2)n1` (stereo unspecified), the survival is inactive: 120%.

Take `COc1ccc(-c2ccc(NS(=O)(=O)c3cccc(Cl)c3)cc2)nn1`: the survival was inactive: 82%.

Consider `Cc1ccccc1CNC(=O)c1ccc(Cn2c(SCc3cccc(F)c3)nc3cccnc32)cc1`, for which the survival was inactive: 70%.

Regarding `COc1ccc(N2CCN(C(=O)c3cc(S(=O)(=O)N4CCCCCC4)cn3C)CC2)cc1`, the survival was inactive: 69%.

For the compound `CN1CCN(CCCC(=O)c2ccc(F)cc2)CC1`, the survival was inactive: 97%.

Take `Cc1ccc2oc(C(=O)N(Cc3cccc(F)c3)C3CCS(=O)(=O)C3)c(C)c2c1` (stereo unspecified): the survival was inactive: 78%.

Regarding `COc1cccc(Cn2c(=O)n(-c3ccc(C)c(F)c3)c(=O)c3sc4ccccc4c32)c1`, the survival was inactive: 81%.

For the compound `COc1cccc(NC(=O)N2CCC(n3c(C)nc4cccnc43)CC2)c1`, the survival was inactive: 73%.

For `COc1cccc(OC)c1C(=O)Nc1nnc(C)s1`, the survival is inactive: 77%.

Take `Cc1ccc(-c2cc(C(F)(F)F)n3nc(-c4ccc(Cl)cc4)cc3n2)cc1`: the survival is inactive: 66%.

For `COc1ccc(CNC(=O)C2CCN(Cc3nc(-c4ccc(OC)c(OC)c4)oc3C)CC2)cc1`, the survival is inactive: 91%.

Take `Cc1ccc(N(CC(C)C)S(=O)(=O)c2nnc(NC(=O)c3ccco3)s2)cc1`: the survival is inactive: 48%.

Regarding `COc1ccccc1N1CCN(C(=O)c2sc3nc4n(c(=O)c3c2C)CCC4)CC1`, the survival was inactive: 79%.

On to `CCCCN(CC)CCNC(=O)c1cn(CCOC)c(=O)c2c1c1ccccc1n2C`, for which the survival is inactive: 89%.

Regarding `CCC(=O)N1CCc2cc(S(=O)(=O)CCC(=O)Nc3ccc(Cl)c(C(F)(F)F)c3)ccc21`, the survival was inactive: 74%.

`CC(=O)N1C(Nc2ccc(C)cc2)CCN1c1ccccc1` (stereo unspecified): the survival is inactive: 104%.

Take `CCOc1ccc(C(=O)c2cn(Cc3ccccc3OC)c3cc4c(cc3c2=O)OCCO4)cc1`: the survival was inactive: 80%.

On to `Cc1ccc(NC(=O)Cn2c(=O)oc3ccccc32)cc1Cl`, for which the survival was inactive: 55%.

For `COc1ccccc1CN1COc2ccc3c(C)cc(=O)oc3c2C1`, the survival is inactive: 92%.

Regarding `O=C(NC1CC(=O)N(c2cccc(F)c2)C1)c1ccc(S(=O)(=O)N2CCOCC2)cc1` (stereo unspecified), the survival is inactive: 81%.

For the compound `CN(C)c1ccc(C(C(=O)NC2CCCCC2)N(Cc2ccco2)C(=O)Cc2c[nH]c3ccccc23)cc1` (stereo unspecified), the survival is inactive: 107%.

For `O=S(=O)(NCc1ccco1)c1ccc(Cl)cc1`, the survival was inactive: 107%.

With `OC(CN1CCCCC1)CN(c1ccccc1)c1ccccc1` (stereo unspecified), the survival was inactive: 113%.

In the case of `COc1cc(/C=C(\C#N)C(=O)Nc2ccc(S(N)(=O)=O)cc2)ccc1O`, the survival was inactive: 105%.

Regarding `CCOC(=O)c1ccc(NC(=O)CSc2ccc(-c3sc(C)nc3C)nn2)cc1`, the survival is inactive: 32%.

On to `CCOC(=O)c1ccc(NC(=O)c2cn(-c3ccccc3)nc2-c2ccc(Br)cc2)cc1`, for which the survival is inactive: 69%.

Turning to `CCN(CC)C(=O)C(C(F)(F)F)C(F)(F)F`, the survival was inactive: 103%.

`Fc1ccccc1CSc1nnc2c(n1)[nH]c1ccccc12`: the survival is inactive: 101%.

Take `COc1ccc(Cn2ccc3nc(C)c(C(=O)N4CCN(c5ccccc5)CC4)cc3c2=O)cc1`: the survival was inactive: 80%.

With `COc1ccc(C(=O)c2oc3ccccc3c2NC(=O)c2ccc(F)cc2)cc1`, the survival is inactive: 69%.

Turning to `O=C(c1cn(CCOc2ccccc2F)c2ccccc12)C1CCCCC1`, the survival is active: 3%.

Take `COCCNc1cn[nH]c(=O)c1Cl`: the survival was inactive: 90%.

For `C(=N\C(/N=C/c1cccs1)c1cccs1)/c1cccs1`, the survival is inactive: 123%.

`CC(=O)NS(=O)(=O)c1ccc(NC(=O)c2ccc(C)c(C)c2)cc1`: the survival was inactive: 122%.
